Data as given in PubChem BioAssay AID504332 (National Center for Advancing Translational Sciences (NCATS), 2011).
The whole screen tested about 350,000 compounds, of which about 31,000 (8.9%) were called active. Inconclusive results, whose numbers are uncertain, are shown with a selection of clear calls. The call rests on the fitted dose curve; in most records, active means well fitted inhibition curve with a large enough effect; inconclusive means small, poorly fitted or top-dose-only effect; inactive means no such curve, though single readings can be large or run the other way. Potencies beside an inconclusive call are fits to weak or partial responses and may not hold up.

Target: Histone-lysine N-methyltransferase EHMT2 (Homo sapiens) (UniProt Q96KQ7)
Test: qHTS Assay for Inhibitors of Histone Lysine Methyltransferase G9a; further: nearly all actives have a fitted effect of over 75% in size
Conditions: G9a H3K9 monomethylation, AlphaScreen, 2 h; activity, negative = inhibition: at 59 µM (top of the series) unless noted
How it was run: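 AlphaScreen read-out: biotin-H3K9 peptide (500 nM) methylation by 20 nM enzyme with 20 uM SAM, 2 h at room temperature after 15 min compound preincubation; anti-monomethyl H3K9 antibody plus donor/acceptor beads, 10 min dark.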
On the % scale 0 is the no-effect control and ±100 the full control effect; potency means the concentration at half of the fitted maximal effect; tags describe the fitted curve by direction and shape.

UniProt Q96KQ7, sequence (Q96KQ7 whole entry, looked up): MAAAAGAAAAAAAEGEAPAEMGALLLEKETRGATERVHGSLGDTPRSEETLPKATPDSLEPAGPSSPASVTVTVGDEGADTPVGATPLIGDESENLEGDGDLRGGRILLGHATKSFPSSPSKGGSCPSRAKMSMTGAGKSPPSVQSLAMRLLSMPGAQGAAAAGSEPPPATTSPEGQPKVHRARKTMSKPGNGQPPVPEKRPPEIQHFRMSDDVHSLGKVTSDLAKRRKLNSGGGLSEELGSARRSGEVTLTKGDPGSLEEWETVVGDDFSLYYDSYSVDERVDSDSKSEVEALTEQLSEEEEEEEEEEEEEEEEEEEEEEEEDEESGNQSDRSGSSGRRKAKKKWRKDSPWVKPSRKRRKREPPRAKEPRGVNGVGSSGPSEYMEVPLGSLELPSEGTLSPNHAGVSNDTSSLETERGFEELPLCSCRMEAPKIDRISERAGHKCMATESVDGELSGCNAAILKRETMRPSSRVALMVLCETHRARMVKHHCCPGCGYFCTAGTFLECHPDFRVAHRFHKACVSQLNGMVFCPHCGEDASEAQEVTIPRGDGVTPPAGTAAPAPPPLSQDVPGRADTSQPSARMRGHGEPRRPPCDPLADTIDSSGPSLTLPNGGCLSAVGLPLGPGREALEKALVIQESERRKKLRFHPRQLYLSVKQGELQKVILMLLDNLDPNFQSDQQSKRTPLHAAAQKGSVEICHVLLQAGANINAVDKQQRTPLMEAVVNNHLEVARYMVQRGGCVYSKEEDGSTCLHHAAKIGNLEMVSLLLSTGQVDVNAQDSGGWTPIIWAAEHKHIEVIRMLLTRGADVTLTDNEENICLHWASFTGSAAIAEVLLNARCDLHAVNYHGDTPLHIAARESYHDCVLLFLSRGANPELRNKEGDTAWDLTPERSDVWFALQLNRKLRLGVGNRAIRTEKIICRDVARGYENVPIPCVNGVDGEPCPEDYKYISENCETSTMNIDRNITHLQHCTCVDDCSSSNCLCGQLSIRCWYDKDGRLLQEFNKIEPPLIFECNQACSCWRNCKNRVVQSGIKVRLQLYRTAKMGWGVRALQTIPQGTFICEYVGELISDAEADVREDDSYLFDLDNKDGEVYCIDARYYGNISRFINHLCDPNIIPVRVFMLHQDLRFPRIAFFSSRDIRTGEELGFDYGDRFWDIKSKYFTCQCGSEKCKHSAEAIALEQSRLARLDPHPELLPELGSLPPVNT

| Compound | Potency | activity, negative = inhibition |
| --- | --- | --- |
| Cc1ccc(CN(Cc2ccccc2)C(=S)NCC(=O)NCc2cccnc2)o1 | active: 28.2 µM |  |
| O=C(OCC(=O)N1CCN(C(=O)c2ccco2)CC1)c1cccc(S(=O)(=O)N2CCc3ccccc32)c1 |  | inactive: -50.6% [at 102 µM] |
| CCOC(=O)c1cccc(NC(=O)c2cc3cc4cc(OC)ccc4nc3s2)c1 | inconclusive: 10 µM [inhibitor, partial curve, poor fit] |  |
| O=C(C1CCCN(Cc2cccc(Cl)c2)C1)N1CCCCC1 (stereo not given) | inconclusive: 79.4 µM [inhibitor, partial curve, poor fit] |  |
| CC1=C(C(=O)Nc2ccccc2)C(c2ccco2)C(C#N)=C(SCC(N)=O)N1 (stereo not given) | inconclusive: 25.1 µM [inhibitor, single point] |  |
| COc1ccc(C)cc1NC(=O)CN1C(=O)COc2ccc(S(=O)(=O)N3CCOCC3)cc21 | inactive |  |
| CS(=O)(=O)c1ccc(Cl)c(NC(=O)COC(=O)c2cccc(S(=O)(=O)N3CCCCC3)c2)c1 | inconclusive: 35.5 µM [inhibitor, partial curve, poor fit] |  |
| Cn1nnc(NC(=S)NC(=O)c2cccc3c(Cl)cccc23)n1 | inconclusive: 50.1 µM [inhibitor, partial curve, poor fit] |  |
| COc1ccc(C(=O)Nc2cc(-c3ccccc3)nn2-c2ccccc2)cc1 |  | inactive: 3.84% |
| CCOc1cc2[nH]c(=S)n(CC3CCCN3CC)c(=O)c2cc1OCC (stereo not given) | inconclusive: 25.1 µM [inhibitor, single point] |  |
| Cc1csc(NC(=O)CSc2ncnc3c2cnn3-c2ccccc2Cl)n1 | inconclusive: 50.1 µM [inhibitor, partial curve] |  |
| CC(C)(C)NC(=O)NC(=O)CN1CCc2ccccc21 | inconclusive: 25.1 µM [inhibitor, full curve, poor fit] |  |
| Cc1c(C#N)c(O)n(CCO)c(=O)c1N=Nc1ccc2c(c1)COC2=O | active: 50.1 µM |  |
| O=C(CSc1nccn1-c1ccc(F)cc1)NCc1ccc(F)cc1 | inconclusive: 44.7 µM [inhibitor, partial curve, poor fit] |  |
| O=C(Nc1ccnn1C1CCN(Cc2ccc(O)c(Cl)c2)CC1)C1CCCC1 |  | inactive: 9.46% [at 102 µM] |
| CC1=Nc2cc(C(=O)NCc3ccc(C)cc3)ccc2Sc2ccc(Cl)cc21 | inconclusive: 35.5 µM [inhibitor, single point] |  |
| COc1ccc(Cl)cc1NC(=O)C(C)N1CCc2ccccc21 (stereo not given) | inconclusive: 2.24 µM [inhibitor, full curve, poor fit] |  |
| COc1ccc(N=Cc2[nH]c3ccccc3c2O)cc1 | active: 6.31 µM |  |
| Cc1ccc(Sc2ncccc2[N+](=O)[O-])cc1 | inconclusive: 89.1 µM [inhibitor, single point] |  |
| CCOC1=NN(c2ncc(C(F)(F)F)cc2Cl)C(=O)/C1=C/N(C)C | inconclusive: 50.1 µM [inhibitor, partial curve, poor fit] |  |
| CCc1ccc(NC(=O)CSc2nc3cc(C(=O)OC)ccc3c(=O)n2CC2CCCO2)cc1 (stereo not given) | inconclusive: 89.1 µM [inhibitor, partial curve, poor fit] |  |
| Cc1cccc(-n2c(N)cc(=O)nc2SC(C)C(=O)NC2CCCCC2)c1 (stereo not given) | inconclusive: 89.1 µM [inhibitor, partial curve, poor fit] |  |
| O=C(CSCc1ccc(F)cc1)NCc1ccco1 | inconclusive: 20 µM [inhibitor, partial curve, poor fit] |  |

| Compound | Potency | activity, negative = inhibition |
| --- | --- | --- |
| CC1=C(C(N)=O)C(c2ccc(Cl)c(Cl)c2)n2ncnc2N1 (stereo not given) |  | inactive: 8.93% [at 102 µM] |
| CO/N=C/c1ccc(Sc2ccccc2)c([N+](=O)[O-])c1 | inconclusive: 17.8 µM [inhibitor, partial curve, poor fit] |  |
| O=C(CSc1nc2c([nH]c3ccccc32)c(=O)n1-c1ccc(Cl)cc1)NC1CCCCC1 |  | inactive: 4.91% |
| CN1CCN(C(=O)CCNC(=O)Cn2cnc3ccccc3c2=O)CC1 |  | inactive: -6.46% [at 102 µM] |
| CCOc1cc(C(Nc2cc(C)ccn2)c2ccc3cccnc3c2O)ccc1OC (stereo not given) | active: 3.16 µM |  |
| c1ccc(CCSc2nccn2-c2ccccc2)cc1 | active: 44.7 µM |  |
| CCOC(=O)c1ccc(NC2Nc3cc(C)nn3S2)cc1 (stereo not given) | active: 3.16 µM |  |
| O=C(/C=C/c1cnc2ccccc2n1)NC12CC3CC(CC(C3)C1)C2 | inconclusive: 22.4 µM [inhibitor, single point] |  |
| Cc1cc(Nc2cccc(Br)c2)n2c(nc3ccccc32)c1C#N | inconclusive: 39.8 µM [inhibitor, single point] |  |
| O=C(O)CSCc1nc2cccnc2n1C1CCCCC1 | inconclusive: 89.1 µM [inhibitor, single point] |  |
| COc1ccccc1NC(=O)c1c(C)cc(C)nc1SCC(=O)Nc1ccc(C)cc1 |  | inactive: -6.26% |
| CCC(=O)c1ccc2c(c1)N(CCCN1CCN(CCO)CC1)c1ccccc1S2 | inconclusive: 2.51 µM [inhibitor, partial curve, poor fit] |  |
| COc1ccc(NCc2ccccc2[N+](=O)[O-])cc1OC | active: 11.2 µM |  |
| CCC(C)N(C(=O)COC(=O)COc1c(C)cc(C)cc1C)C1CCS(=O)(=O)C1 (stereo not given) |  | inactive: -1.26% [at 102 µM] |
| COc1ccc(CC2c3cc(OC)c(OC)cc3CC[N+]2(C)CCC(=O)OCCCCCOC(=O)CC[N+]2(C)CCc3cc(OC)c(OC)cc3C2Cc2ccc(OC)c(OC)c2)cc1OC (stereo not given) |  | inactive: 7.6% [at 12.7 µM] |
| COc1ccc(NC(=O)c2ccccc2SC)cc1OC | inconclusive: 39.8 µM [inhibitor, single point] |  |
| O=C(CCN1C(=O)c2ccccc2C1=O)Nc1ccccc1C(F)(F)F | active: 44.7 µM |  |
| COc1ccc(N2C(=O)C3CCCN3C2c2cccc(C)c2)cc1Cl (stereo not given) | inconclusive: 0.708 µM [inhibitor, partial curve, poor fit] |  |
| O=C(Nc1ccc(S(=O)(=O)Nc2ccccn2)cc1)c1ccccc1 | inconclusive: 56.2 µM [inhibitor, single point] |  |
| Cc1nc(-c2cccc(NS(=O)(=O)c3ccccc3)c2)cs1 |  | inconclusive: -59.3% [inhibitor] |
| CC(=O)NCCNc1ncnc2ccc(-c3ccccc3C)cc12 |  | inactive: 1.96% [at 0.501 µM] |
| COc1ccc(-c2csc(NC(=S)NC(=O)/C=C/c3ccco3)n2)cc1OC |  | inactive: -1.65% |
| C=CCNC(=O)c1ccccc1NC(=O)c1ccccc1N(C)S(C)(=O)=O | active: 50.1 µM |  |

| Compound | Potency | activity, negative = inhibition |
| --- | --- | --- |
| CCN(CC)S(=O)(=O)c1ccc(NCc2ccccc2)nc1 |  | inactive: 4.15% |
| COc1ccccc1NC(C)C(=O)N/N=C/c1ccccc1OCc1cccc(Br)c1 (stereo not given) | active: 50.1 µM |  |
| O=S(=O)(Nc1ccc(Cl)cc1)c1ccc(N2CCOCC2)c(NC(=S)NCCN2CCOCC2)c1 | active: 4.47 µM |  |
| COc1ccc(C(=O)NC(=S)Nc2ccc(CN3CCOCC3)cc2)cc1OC | inconclusive: 31.6 µM [inhibitor, single point] |  |
| O=C(NCc1cccs1)c1cccnc1Cl | inconclusive: 39.8 µM [inhibitor, single point] |  |
| CCc1ccccc1NC(=O)Nc1ccc2c(c1)OCO2 | inconclusive: 50.1 µM [inhibitor, partial curve, poor fit] |  |
| O=C1C2C3C=CC(C4CC34)C2C(=O)N1/N=C/c1ccc(-c2ccc(Cl)cc2[N+](=O)[O-])o1 (stereo not given) | active: 35.5 µM |  |
| CN(C)c1ccc(C(=C2C=CC(=[N+](C)C)C=C2)c2ccc(N(C)C)cc2)cc1 | inconclusive: 0.398 µM [inhibitor, full curve, poor fit] | inconclusive: -124% [inhibitor] [at 2.33 µM] |
| CC(=C1C(=O)c2ccccc2C1=O)N1CCc2ccccc2C1 | inconclusive: 2.51 µM [inhibitor, partial curve, poor fit] |  |
| CC1CCN(CCOc2cccc(Br)c2)CC1 | active: 7.94 µM |  |
| COc1cccc(NC(=O)CN2C(=O)CC(c3ccco3)Sc3ccccc32)c1 (stereo not given) | inconclusive: 22.4 µM [inhibitor, partial curve, poor fit] |  |
| O=C(CCc1nc2ccccc2c(=O)[nH]1)Nc1nc(-c2cccs2)cs1 | active: 44.7 µM |  |
| O=c1cc(CO)occ1OCc1cccc(C(F)(F)F)c1 |  | inactive: 5.97% |
| COc1cccc(C(=O)Nc2ccc(N(C)C)cc2)c1OC | inconclusive: 2.51 µM [inhibitor, partial curve, poor fit] |  |
| CC(C)(C)c1ccc(C(=O)c2c[nH]c(C(=O)O)c2)cc1 | inconclusive: 79.4 µM [inhibitor, partial curve, poor fit] |  |
| Clc1ccccc1-c1nnc2sc(CCc3ccccc3)nn12 | active: 4.47 µM |  |
| CCOC(=O)Cn1nnnc1C(C(C)C)N(Cc1cccs1)Cc1cc2cc(C)ccc2[nH]c1=O (stereo not given) | inconclusive: 12.6 µM [inhibitor, partial curve, poor fit] |  |
| O=C(/C=C\Nc1ccc(S(=O)(=O)Nc2ncccn2)cc1)c1cccc2ccccc12 | inconclusive: 89.1 µM [inhibitor, single point] |  |
| COC(=O)C1=C(C(=O)OC)C2C(C)=CC(C)=CN2C(C(=O)OC)=C1C(=O)OC (stereo not given) | inconclusive: 10 µM [inhibitor, partial curve, poor fit] |  |
| COCc1ccc(C(=O)N2CCCC(Nc3ccc(C(C)C)cc3)C2)o1 (stereo not given) | active: 44.7 µM |  |
| CCC(C)(C)NC(=O)C(c1cccc(OC)c1OC)N(C(=O)CCC(=O)Nc1cc(C)on1)c1ccc2c(c1)OCCO2 (stereo not given) |  | inactive: -18.4% [at 102 µM] |
| COc1ccc(C)cc1Nc1n[n+](C)c(-c2c3ccccc3cc3ccccc23)s1 | active: 44.7 µM |  |
| COc1ccc(S(=O)(=O)N2CCC(=O)N2)cc1 | inconclusive: 4.47 µM [inhibitor, single point] |  |
